The results in this text go back to the RNAGym collection of RNA variant scans (doi:10.7554/elife.90254).

Read counts are not given, so values of variants with three or more changes are uncertain.

Sequences and labels used below:
B1: LINE1-full (parent)
chain: UACGUAGGUGGUUUUCCCCUGAUAGUGCUAAGGGGGCCUGGAAGUUUGGACUGGGCAGAGCUCAACACAGCGUGGCAAAGUGGCUGUGGCUAGACUGCCUCUCUGGAUUCCUCGUCACUCAGCAGGGCAUCUCUGAGAGAAAUGCC

Variants of B1 are the subject of this data set. Put plainly: self-cleavage, relative activity (ratio to wild type); higher = more cleavage; in vitro, sequencing; the parent is a self-cleaving ribozyme.
As to U9C U15A G25C U62A, the self-cleavage was determined as 0.04. Next, U46C U52A U112C: 2.13.

On to U13C U115C G135A, for which the self-cleavage turned out to be 2.15. The same measure for U12C A30G U45C G60C: 0; for U100A A121U U130C: 0.8. Regarding U1C U12C G127A, the self-cleavage was 1.11. The same measure for U14C A59U U87C A129U: 0.44; for A6U U14C U15C A69U U108C: 0.68. The same measure for A24G A30G A77G: 0.51; for G54A U85C U112A: 0.09.

As to G60A A77G U102C, the self-cleavage stood at 0.07.

Regarding U47A U85G U102C, the self-cleavage was determined as 0.15. Regarding U26G U102C A140G, the self-cleavage amounted to 0.

With U20C A67G G97A A124U, the self-cleavage was determined as 0.03. Turning to U91C U102C A117U, the self-cleavage came out at 1.48. As for A117U A129C A142G, the self-cleavage was 1.8. Next, U96A A121C U130C C131U: 0.09. Consider U62C A67G U109A U115C A121U, for which the self-cleavage was found to be 0. Next, A2U U20C A64G U91A: 0.57. The same measure for U5C U15A A78U: 0.96. Next, U20A A43G U45A: 1.75; G4A U9C U108C: 1.18; U46C U100C A138G: 1.75.

With U9C U14A G40A A141U A142G, the self-cleavage is 0.35. Take A31G A69G G89A: the self-cleavage worked out at 0.04. The same measure for A31U A69G A79G C128U U143A: 0.17; for A24G G25A U73A A124U: 1.41; for U73C G74C U96A: 0. The same measure for U9A A65G U100C: 0.15; for U1C A43G U109C: 1.89.

For the variant U29C A67U A129U, the self-cleavage stood at 0.19.

A79G U96C U132C: the self-cleavage worked out at 0. Regarding U20C U47A A65G U132G A140G, the self-cleavage stood at 0.14. The same measure for A65G U73C A121C: 0; for U81C U109C C116U G126A U130C: 1.36; for U1A U9A U12C A57U: 0.11.

G33U U87C A142G: the self-cleavage turned out to be 0.2.

A42G U46C A59U: the self-cleavage came out at 0.26. The same measure for U1C U20A A67U U108C A141G: 0.07; for U45C G70A U112A A117G A129U A138C: 0. In the case of U39C C98U G125A, the self-cleavage amounted to 0.06. Next, A77G A94G G127U: 0.39; U14A G32A A140U: 0.53; U1C U12A A24G A42G U52A A67U A141G: 0. Next, A43G U73C U104A U108A A141G: 0.71; U5C C37U A59G A78G U91A: 0.11; U29C A67C A69U: 0.04. Turning to G34A U47C U62A, the self-cleavage amounted to 0.01.

Turning to A57G A117G U134A A140G, the self-cleavage turned out to be 0.18.

Regarding U14C U39C U73C, the self-cleavage was determined as 1.17.

On to C19U U119C A141G, for which the self-cleavage was 1.62. Next, U39C U73C U134C: 0; U12C G35A G48C C103U U104A U112C G114A: 1.64. Take U14C U20C U26A A142G: the self-cleavage came to 0.8. Next, G32U A77G A140G: 1.9. Consider U15C G33U U39A U115A, for which the self-cleavage was 2.44. Next, C3U A69U A94G U115C: 0; U14C U45C U52A A117G A129G: 0.92. The same measure for G27A A59G A107G C111U A121U: 0.07; for U29C A50G G53U G58A U115A A141G: 0.03.

Take U13C A22U C95U A129G: the self-cleavage amounted to 0.25. For the variant C56U U108G A124G, the self-cleavage came to 0.02.

U15C G75U U85C U91A: the self-cleavage was 0.17.

For the variant A2G U13C A42G A78G, the self-cleavage is 0.57.

As to G53A U62C U112A, the self-cleavage was found to be 0.03. Next, U45C A64U U119C A129G: 0.45; C19U A22G U62A A69U A79G: 0.09; A43G A57G G89U: 0.06. Next, G35A U39G U104A U112A C123U A136G: 1.2; G93A U100C U132A: 0.05. For the variant U5A A43G G72U U109C, the self-cleavage amounted to 0.41.

For the variant U47C A77G A117U, the self-cleavage is 1.93. In the case of A42G C71A U81A, the self-cleavage came to 0.4.

With U81A A92U A138G, the self-cleavage was 1.15. In the case of U14C U26A U46A U62C A79G U112C, the self-cleavage turned out to be 0.13. G7A A24G A31G: the self-cleavage came out at 1.49. Next, U9C U13G U23C: 0.77. Take U9C A64U A77U U102A A140U A141G: the self-cleavage came to 0.28. As to C3U A42G A77U, the self-cleavage is 1.02. Next, A31G A79G U115C: 1.77; U29C A57G A121G A138G: 0; U29A A42G U73A U85C: 0.2. The same measure for G33U A57U A78G A138G: 0.08; for A43U U47A U115C A121U: 0.95; for U14C A117U A136G: 1.2. Regarding U45C A69G G126A, the self-cleavage came to 0.41. The same measure for A57G C68U U102C: 0.05. Next, U39A U109C C116A: 0.74; A50G U73A U112A U143A: 0.72. Next, U45C U46C A79G U87A: 0.16; U62C U85A A107G: 0.08; U12C C38U U112A A138G: 1.53. As for U14C U26C U52A U96C, the self-cleavage stood at 0.14. As for U9C U13C U143G, the self-cleavage was determined as 0.66.

As for U73A A121G U134A, the self-cleavage was 1.91. On to U39C A64U U119C U130C, for which the self-cleavage came to 0.36. For the variant U52A U81C U104A A107G, the self-cleavage is 1.36. Next, U26A U47A U73A A94G A124G: 0.19; G21A U91C U134C: 0.36.

For A24G A42G A69C C113A U115A, the self-cleavage is 0.18. The same measure for U13C C37U A43G G55A: 0.16; for U39A U96C U104C: 0.13. Next, G21U A43G U47C U85C: 0.

G86A A94G U115A: the self-cleavage was 0.04. For the variant U12G A42G U52A U81A, the self-cleavage stood at 0.99.

As for G33U U39A C133A, the self-cleavage was found to be 1.07. As for U52A A77G A94G A121U, the self-cleavage was found to be 0.49. The same measure for U73A U85C C101A U108C: 0.29; for C17U A57G G88A A124U: 0.05. Next, U14C G75A A92U: 0.44; U5C A67U A121G: 0; A6G U12C U104C: 1.23. Regarding G35A U52A A77U U112A A129U, the self-cleavage is 1.14. The same measure for U29C G41A C68U: 0.07; for U26C U112C A124G A129U: 2.55; for G21A A50G C63A: 0.02. The same measure for C3U U96C A136G: 0. For the variant U5C U46A A79G, the self-cleavage was determined as 2.04. As to U85C U132A U134G, the self-cleavage turned out to be 0.2.

For U62C A79U U85C, the self-cleavage stood at 0.06.

U14A A31U A124G: the self-cleavage amounted to 1.08.

For U13C A67U A77U, the self-cleavage stood at 0.09. Next, U1C A42G U104A A117G: 0.38.

Consider A2U G48A A78G, for which the self-cleavage was 0.59. Next, G27A A94G G127A: 0.15; G93C A117G C131A: 0.04.

On to A107U A138G U143A, for which the self-cleavage stood at 1.53.

For A24G A64U A77G, the self-cleavage stood at 1.15. As to A22G A42U C113U A129U U132A, the self-cleavage amounted to 1.08. Next, G21A U109A A140G: 0.89; G86A U119C A142G: 0.13; U26C U46C C101A: 1.07. For the variant U1G U20A A42G A107G A140U, the self-cleavage was 1.56.

Take A31G U47A U100C U108A: the self-cleavage is 1.4.

Take U96C A129U U134A: the self-cleavage is 0.06.

U14A A78G A107G: the self-cleavage was found to be 1.67. The same measure for A59G G72A U108C: 0.06; for U14C A59G U115C: 0.4.

With C19U G44A U52C A59G U104A, the self-cleavage came to 0.

Turning to G86A A121G A136U, the self-cleavage was determined as 0.07. Take G36A U47C U73C G125A: the self-cleavage stood at 2.27. The same measure for U81C G105A U119A: 1.47; for A2G A69U G126A: 0.1; for U9C A67G U132C: 1.34. Next, U14C A69G U109A: 0. For the variant U85A A94G C133U U143A, the self-cleavage was found to be 0.18. For the variant U13C U45C U119A U132G, the self-cleavage was found to be 0.88. The same measure for U26G A57G U109A A129G: 1.69; for G7A U46A U73A: 0.49; for U15C G36U U87C U115G: 0.07. For U15C U108C U115C G139U, the self-cleavage stood at 1.91. The same measure for U20A U39A U91A A124C: 0.92; for U1C A30U A65U A79G A117G: 0.

For the variant A6G U87C U100G, the self-cleavage was 0.

On to U20A C38A A42G A94U, for which the self-cleavage is 0.31. The same measure for U47C U112C U119C A140G: 1.84; for A94G U104A U109C: 0; for A2G C3G C61U A78G U96A: 0.26.

As to U73A U96C A117U, the self-cleavage was 0.07.

Turning to G40A U132C A136G, the self-cleavage was 1.11. As for U13C U52A U115C, the self-cleavage came to 1.46. As to U12C A57G G139A, the self-cleavage came out at 0.73. The same measure for A78G U132A U134G: 2.63. Next, U1C A22G A79G A117U A129G A136G: 0.53. Next, G10U U23C A30U A57U: 0.29; A31U G35A A42G A59C A67G U119A A140G: 0.31. On to A43G U45C A79G A124U A142G, for which the self-cleavage turned out to be 0.
